The results in this text go back to the antibiotic and cytotoxicity screens of Wong et al. (2023).

The list shows a part of the results.

The test system of one test is HSkMC. Briefly: cytotoxicity call (relative viability < 0.9). The conditions noted are these: 10 µM.
The subject of the next test is HepG2. Briefly: cytotoxicity call (relative viability < 0.9). The conditions noted are these: 10 µM.
The test system of the next test is S. aureus RN4220. Briefly: growth inhibition call (relative growth <= 0.2). Conditions: 50 µM.

Turning to `COc1ccc(S(=O)(=O)N(C)C[C@H]2OCCCC[C@H](C)Oc3ccc(NC(=O)Nc4ccccc4)cc3C(=O)N([C@@H](C)CO)C[C@@H]2C)cc1`, the cytotoxicity call in the test on HSkMC and in the test with HepG2 was “inactive” in each case. Moreover, in the test with S. aureus RN4220, the growth inhibition call is “inactive”.

Consider `Cn1cc(C(=O)N2CC[C@H]3[C@@H]2CCN3S(C)(=O)=O)cn1`, for which the cytotoxicity call in the test with HSkMC and in the test with HepG2 was “inactive” each time. Also, in the test on S. aureus RN4220, the growth inhibition call was “inactive”.

For `C[C@H](CO)N1C[C@H](C)[C@@H](CN(C)Cc2cccc(O)c2)OCc2ccccc2-c2c(n(C)c3ccccc23)C1=O`, the cytotoxicity call with HSkMC and in the test with HepG2 was “inactive” in each case. Moreover, the growth inhibition call with S. aureus RN4220 was “inactive”.

As to `C[C@@H]1CN([C@H](C)CO)C(=O)c2cccc(NC(=O)c3ccc(-c4nccs4)cc3)c2O[C@@H]1CN(C)Cc1ccc(C(F)(F)F)cc1`, in the test on HSkMC, the cytotoxicity call is “inactive”. Further, in the test with HepG2, the cytotoxicity call was “active”. The growth inhibition call with S. aureus RN4220 is “inactive”.

Take `C[C@H](CO)N1C[C@H](C)[C@@H](CN(C)S(=O)(=O)c2ccc(F)cc2)Oc2c(NS(=O)(=O)c3cn(C)cn3)cccc2C1=O`: the cytotoxicity call with HSkMC and in the test on HepG2 was “inactive” throughout. In addition, the growth inhibition call in the test on S. aureus RN4220 was “inactive”.

Consider `CCCCCCCCCCCCC[N+](C)(C)Cc1ccccc1.O.[Cl-]`, for which the cytotoxicity call in the test with HSkMC and in the test with HepG2 was “active” in each case. In the test with S. aureus RN4220, the growth inhibition call was “inactive”.

`C[C@@H]1CN([C@H](C)CO)C(=O)c2cc(NC(=O)C3CCCCC3)ccc2O[C@@H](C)CCCCO[C@@H]1CN(C)C(=O)C1CCCCC1`: the cytotoxicity call in the test with HSkMC and in the test with HepG2 was “inactive” each time. Besides, the growth inhibition call in the test on S. aureus RN4220 was “inactive”.

For the compound `C[C@H](CO)N1C[C@H](C)[C@@H](CN(C)C(=O)CN(C)C)Oc2cc(C#CC(C)(C)O)ccc2S1(=O)=O`, the cytotoxicity call in the test on HSkMC and in the test with HepG2 was “inactive” throughout. The growth inhibition call in the test with S. aureus RN4220 is “inactive”.

`COCc1cn(CC[C@@H]2CC[C@@H](NC(=O)CCN3CCCCC3)[C@H](CO)O2)nn1`: the cytotoxicity call in the test with HSkMC and in the test with HepG2 was “inactive” in each case. For the same compound, in the test on S. aureus RN4220, the growth inhibition call was “inactive”.

As to `C[C@H](CO)N1C[C@H](C)[C@@H](CN(C)C(=O)Nc2cccc3ccccc23)Oc2ccc(NC(=O)Cn3cnnn3)cc2C1=O`, the cytotoxicity call with HSkMC and with HepG2 was “inactive” each time. The growth inhibition call in the test with S. aureus RN4220 is “inactive”.

Regarding `C[C@H]1CN([C@@H](C)CO)C(=O)Cc2cc(NC(=O)Nc3ccc(C(F)(F)F)cc3)ccc2O[C@@H]1CN(C)C(=O)Nc1ccc2c(c1)OCO2`, the cytotoxicity call in the test on HSkMC and with HepG2 was “inactive” each time. The growth inhibition call in the test with S. aureus RN4220 was “inactive”.

For `CC(C)NC(=O)N(C)C[C@H]1Oc2ccc(NS(=O)(=O)c3ccc(Cl)cc3)cc2C(=O)N([C@@H](C)CO)C[C@H]1C`, the cytotoxicity call with HSkMC and in the test on HepG2 was “inactive” throughout. The growth inhibition call in the test with S. aureus RN4220 is “inactive”.

Regarding `C[C@@H]1CN([C@@H](C)CO)C(=O)Cc2cc(NC(=O)CCCN(C)C)ccc2O[C@H]1CN(C)C(=O)Nc1ccccc1`, the cytotoxicity call in the test on HSkMC and with HepG2 was “inactive” in each case. For the same compound, the growth inhibition call in the test with S. aureus RN4220 is “inactive”.

Take `Cc1noc(C)c1S(=O)(=O)N(C)C[C@@H]1Oc2ccc(NC(=O)Cc3ccccc3)cc2CC(=O)N([C@H](C)CO)C[C@@H]1C`: the cytotoxicity call in the test on HSkMC and in the test on HepG2 was “inactive” each time. In addition, in the test on S. aureus RN4220, the growth inhibition call is “inactive”.

As for `Cc1ccc(S(=O)(=O)Nc2ccc3c(c2)C(=O)N([C@@H](C)CO)C[C@H](C)[C@H](CN(C)S(=O)(=O)c2cn(C)cn2)O3)cc1`, the cytotoxicity call with HSkMC and with HepG2 was “inactive” each time. Further, the growth inhibition call with S. aureus RN4220 is “inactive”.

For `CC1(C)SCCN(S(=O)(=O)c2ccc(OCC#CCO)cc2)[C@H]1C(=O)NO`, the cytotoxicity call with HSkMC and in the test on HepG2 was “inactive” throughout. Moreover, in the test on S. aureus RN4220, the growth inhibition call was “inactive”.

With `NC[C@H](c1ccco1)N1CCc2ccccc2C1`, the cytotoxicity call in the test with HSkMC and in the test on HepG2 was “inactive” each time. Besides, the growth inhibition call in the test on S. aureus RN4220 is “inactive”.

Turning to `C[C@@H]1CN([C@@H](C)CO)C(=O)CCCn2cc(nn2)CO[C@H]1CN(C)S(=O)(=O)c1ccc(-c2ccccc2)cc1`, the cytotoxicity call with HSkMC and in the test with HepG2 was “inactive” throughout. The growth inhibition call in the test with S. aureus RN4220 was “inactive”.

Regarding `C[C@@H]1CCCCO[C@@H](CN(C)Cc2ccc(C(=O)O)cc2)[C@@H](C)CN([C@H](C)CO)C(=O)c2cc(NC(=O)c3ccccc3)ccc2O1`, the cytotoxicity call in the test on HSkMC and with HepG2 was “inactive” in each case. In the test on S. aureus RN4220, the growth inhibition call was “inactive”.

Consider `C[C@H]1CN([C@@H](C)CO)C(=O)Cc2cc(NC(=O)Cn3cnnn3)ccc2O[C@H]1CN(C)Cc1ccc2c(c1)OCO2`, for which the cytotoxicity call in the test with HSkMC and in the test with HepG2 was “inactive” throughout. For the same compound, the growth inhibition call in the test with S. aureus RN4220 was “inactive”.

Consider `O=C(O)C1CCN(c2ncccn2)CC1`, for which the cytotoxicity call with HSkMC and in the test on HepG2 was “inactive” each time. In the test with S. aureus RN4220, the growth inhibition call is “inactive”.

As for `Cn1c(N2CCOCC2)nc2c1c(=O)[nH]c(=O)n2C`, the cytotoxicity call in the test with HSkMC and in the test on HepG2 was “inactive” throughout. Further, the growth inhibition call in the test on S. aureus RN4220 was “inactive”.

For `Cc1ccc(S(=O)(=O)N(C)C[C@@H]2Oc3ccc(NC(=O)Nc4cccc5ccccc45)cc3C(=O)N([C@H](C)CO)C[C@@H]2C)cc1`, the cytotoxicity call with HSkMC and with HepG2 was “inactive” throughout. For the same compound, the growth inhibition call in the test with S. aureus RN4220 is “inactive”.

`C[C@@H]1CN([C@H](C)CO)C(=O)c2cccc(NC(=O)c3nc4ccccc4s3)c2O[C@H]1CN(C)C(=O)Nc1ccc(F)cc1`: the cytotoxicity call in the test on HSkMC and with HepG2 was “inactive” in each case. Moreover, the growth inhibition call in the test on S. aureus RN4220 is “inactive”.

As for `CCn1c(-c2nonc2N)nc2cncc(C(=O)N3CC[C@H](N)C3)c21`, in the test on HSkMC, the cytotoxicity call is “active”. Moreover, the cytotoxicity call in the test on HepG2 is “inactive”. Also, the growth inhibition call in the test on S. aureus RN4220 was “inactive”.

For the compound `Cc1nn(C)cc1NC(=O)C[C@@H]1CC[C@H]2[C@@H](COc3ccc(NC(=O)C4CCOCC4)cc3C(=O)N2C)O1`, the cytotoxicity call in the test on HSkMC (human skeletal muscle cells) and in the test with HepG2 was “inactive” throughout. Also, the growth inhibition call in the test on S. aureus RN4220 was “inactive”.

Take `C[C@H]1CN([C@@H](C)CO)C(=O)c2cc(NC(=O)Cn3cnnn3)ccc2O[C@H]1CN(C)S(=O)(=O)c1cn(C)cn1`: the cytotoxicity call with HSkMC and in the test on HepG2 was “inactive” throughout. For the same compound, in the test on S. aureus RN4220, the growth inhibition call is “inactive”.
